Test results as given in PubChem BioAssay AID652104 (National Center for Advancing Translational Sciences (NCATS), 2013).
The campaign covered roughly 410,000 compounds. About 7,200 (1.8%) were called active. This list was built around the results that the source calls inconclusive (neither active nor inactive); the mix of calls is not that of the screen. The call rests on the fitted dose curve; in most records, active means well fitted activation curve with a large enough effect; inconclusive means small, poorly fitted or top-dose-only effect, or another doubt; inactive means no such curve, though single readings can be large or run the other way. Where the call is inconclusive, the potency comes from a doubtful curve fit.

assay: qHTS of TDP-43 Inhibitors; details: TDP-43 expressing yeast growth rescue, BacTiter-Glo, 24 h; growth rescue (activation): at 46.1 µM (top of the series) unless noted; further: nearly all actives have a fitted effect of over 50% in size; on growth rescue (activation): % of control where 0% means no effect
Summary of the method: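 Growth rescue of TDP-43-toxic yeast measured as ATP luminescence (BacTiter-Glo). Cells grown to mid-log in raffinose, induced in galactose at OD600=0.02, exposed to compound 24 hr at 30 deg C.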
Potency means the concentration at half of the fitted maximal effect; tags describe the fitted curve by direction and shape.

Growth rescue (activation), inactive:
Cc1cc(S(=O)(=O)C(CNC(=O)c2ccc(OC(C)C)cc2)c2cccs2)ccc1F (stereo not given) 15.1%
COc1ccc(-n2ncc3c(NC(C)(C)CO)ncnc32)cc1 14.5%
CCOC(=O)N1CCN(C(=O)c2cccn3c(=O)c4sccc4nc23)CC1 0%
CCN1CCc2nc3sc(C(=O)Nc4ccccc4OC(F)(F)F)c(N)c3cc2C1 7.69%
CC(=O)Nc1c(C)nn(-c2ccccc2)c1N1CCC(C(=O)Nc2ccccc2C(F)(F)F)CC1 20.7%
O=C(COc1ccc(Cl)cc1)NCC(c1ccco1)S(=O)(=O)c1ccc(F)cc1 (stereo not given) 24.7%
COc1ccc(NC(=O)n2ncc3cc(Cl)ccc32)cc1OC 11.1%
O=C1C(NS(=O)(=O)c2cccs2)=C(N2CCOCC2)C(=O)c2ccccc21 -10.3%
CCCc1nc(N2CCCC2)c(C#N)c2c1CCCC2 8.86%
Cn1nnnc1SCCCNCc1cc(Br)ccc1OCc1ccccc1F 4.04% [at 9.22 µM]
CCOC(=O)c1cc(-c2ccccc2)n(CC(=O)Nc2ccccc2OCC)c1C 8.11%
COc1ccc(S(=O)(=O)N2CCCCC2)cc1NC(=O)COC(=O)c1ccco1 28.5%
COc1cc(OC)cc(C(=O)Nc2nc3ccc(S(C)(=O)=O)cc3s2)c1 -35.1%
COc1ccc([N+](=O)[O-])cc1NC(=O)COC(=O)/C=C/c1ccco1 9.61%
COc1ccc(Oc2cccc(Cl)c2CNC(=O)CC(C)(C)CC(=O)O)cc1 -9.87%

Potency, active:
COCCNc1ncnc2c1c(-c1ccccc1)cn2-c1ccc(C)c(Cl)c1 12.6 µM
O=C(Oc1cc2oc(=O)cc(-c3ccccc3)c2cc1Cl)C1CCCCC1 3.55 µM
CC(C)COc1ccc(-c2nn(-c3ccccc3)cc2CO)cc1 28.2 µM
O=C(Cn1nc(-c2ccco2)ccc1=O)Nc1cc(Cl)ccc1Cl 12.6 µM
Cc1cc(C)n2nc(NCc3cccc(Br)c3)nc2n1 14.1 µM
COc1ccc(-c2onc(C)c2-c2ccc(C(=O)OC(C)C)o2)c(O)c1 14.1 µM
Cc1c([N+](=O)[O-])cnc(Sc2ccccc2)c1[N+](=O)[O-] 22.4 µM
Oc1ccccc1-c1nc(NCC2CCCO2)c2ccccc2n1 (stereo not given) 11.2 µM
Cc1cccc2sc(N(Cc3cccnc3)C(=O)c3ccco3)nc12 17.8 µM

Potency, inconclusive:
COc1ccc(-c2ccc(=O)n(Cc3cccc(Cl)c3)n2)cc1 12.6 µM [activator, single point]
O=C(Nc1cccc(O)c1)c1cc(-c2ccccc2Cl)on1 2.51 µM [activator, full curve, poor fit]
CCC(=O)/C=C1/Sc2ccccc2N1CC 0.562 µM [activator, full curve, poor fit]
O=C(NCc1ccco1)c1ccc2c(c1)N(Cc1ccccc1)C(=O)c1ccccc1S2(=O)=O 0.562 µM [activator, full curve]
CNc1cncc(-c2cccc(C(C)=O)c2)n1 28.2 µM [activator, partial curve]
Cc1c(-c2ccccc2)sc(Br)c1C(=O)N1CCOCC1 35.5 µM [activator, single point]
Clc1ccc(CSc2ncn(-c3ccccc3)n2)cc1 10 µM [activator, partial curve]
CN1C(=O)[C@H]2[C@@H](c3ccc(C(F)(F)F)cc3)N[C@]3(CCCN(Cc4ccc(Br)cc4)C3=O)[C@H]2C1=O 31.6 µM [activator, partial curve]
CCO[C@@H]1OC(C(=O)NCc2ccccc2)=C[C@H](c2ccc(Br)cc2)[C@H]1CCCO 25.1 µM [activator, partial curve, poor fit]
CCCOC(=O)c1ccc(NC(=O)c2c(Cl)ccc(Cl)c2OC)cc1 12.6 µM [activator, single point]
Brc1ccc(-c2cn3c(n2)CCc2ccc4cccnc4c2-3)cc1 7.08 µM [activator, full curve]
CCOc1ccc2nc(N/C(N)=N/C(=S)Nc3cccc(OC)c3)nc(C)c2c1 28.2 µM [activator, single point]
COC(=O)c1ccc(COC(=O)CNC(=O)c2ccc(-c3ccccc3)cc2)cc1 1.78 µM [activator, partial curve]
Cc1ccc(C)n1-n1c(C)nc2sc(-c3ccccc3)cc2c1=O 17.8 µM [activator, single point]
Nc1c(-c2ccc3c(c2)OCCO3)oc2ccccc2c1=O 20 µM [activator, single point]
Cc1ccc2c(c1)N(S(=O)(=O)c1ccc(CN3C(=O)c4cccnc4C3=O)s1)CCO2 11.2 µM [activator, single point]
COc1ccc(-c2cc(C(=O)N3CCCCCC3)c3ccccc3n2)c(OC)c1 12.6 µM [activator, single point]
CCN(CC)S(=O)(=O)c1ccc(C(=O)NC2CC(=O)N(c3ccc(OC)c(OC)c3)C2)cc1 (stereo not given) 3.98 µM [activator, single point]
Oc1ccccc1C=NNC(=S)Nc1ccc(F)cc1 31.6 µM [activator, single point]
CC(C)CCNC(=O)c1ccc(CSCc2cccc(F)c2)o1 6.31 µM [activator, single point]
O=C(NCCOc1ccc(Cl)cc1)c1ccc2ccccc2n1 22.4 µM [activator, single point]
COc1cc(NC(=O)N2c3ccccc3Sc3ccccc32)c(C(=O)O)cc1OC 35.5 µM [activator, partial curve, poor fit]
O=C(CN(C1CCCCC1)S(=O)(=O)c1ccc(F)cc1)NCC1CCCO1 (stereo not given) 20 µM [activator, single point]
CCOC(=O)c1nnc(-c2ccccc2)nc1NCc1ccccc1 15.8 µM [activator, partial curve]
COc1ccccc1OCCCn1c(=O)sc2ccccc21 15.8 µM [activator, single point]
O=C(c1ccc2c(c1)N(Cc1c(F)cccc1Cl)C(=O)c1ccccc1S2)N1CCCC1 35.5 µM [activator, partial curve]
COc1ccc(-c2nc(CCNC(=O)c3ccccc3)cs2)cc1OC 20 µM [activator, single point]
O=c1oc(CCCO)cc2ccc(C#Cc3cccnc3)cc12 1.12 µM [activator, full curve, poor fit]
COc1cccc(NC(=O)CCCn2c(=O)c3cccn3c3cccnc32)c1 2.82 µM [activator, partial curve, poor fit]
CCCCNc1nc(N)nc(-c2cc(Cl)ccc2O)n1 3.55 µM [activator, single point]
O=C1OC2(c3ccccc31)c1ccccc1-c1ccccc12 35.5 µM [activator, single point]
C/C(=N\NC(=S)NC(C)C)c1ccccc1OC(F)F 35.5 µM [activator, partial curve, poor fit]
c1ccc(-c2nnsc2-c2ccccc2)cc1 10 µM [activator, partial curve]
COc1ccc(C(=O)C(C)C(C)=O)c(OCc2ccccc2)c1OC (stereo not given) 1.41 µM [activator, partial curve]
Nc1nc(CSC(=S)N2CCN(c3ccccc3)CC2)nc(Nc2ccccc2)n1 35.5 µM [activator, single point]
CC(Oc1ccccc1)C(=O)Nc1ccc(F)c(S(=O)(=O)N2CCOCC2)c1 (stereo not given) 3.55 µM [activator, single point]
CC(=O)c1c[nH]c(C(=O)NCC2CCCO2)c1 (stereo not given) 35.5 µM [activator, partial curve]
CC(=O)Nc1ccc(C=C(C#N)c2ccc(C)cc2)cc1 28.2 µM [activator, partial curve]
O=C1CC(N2CCN(c3ccccc3F)CC2)C(=O)N1c1ccc(F)cc1 (stereo not given) 12.6 µM [activator, single point]
COc1cc2c(cc1OC)C(c1ccccc1)N(C(=O)c1ccco1)CC2 (stereo not given) 15.8 µM [activator, single point]
CCCOc1ccc(C(=O)NNC(=S)NC(=O)c2cc(-c3ccccc3)nc3ccccc23)cc1 6.31 µM [activator, partial curve]
O=C(O)/C=C\C(=O)Nc1ccc(F)c(F)c1F 3.98 µM [activator, partial curve]
Cc1ccc(C(=O)N2CCN(CCc3ccncc3)CC2)cc1 1.12 µM [activator, full curve, poor fit]
COc1ccc(C(=O)CCc2ccccc2O)c(OC)c1 10 µM [activator, single point]
Cc1ccc2[nH]cc(C(c3ccccc3)c3ccc(Cl)s3)c2c1 (stereo not given) 35.5 µM [activator, single point]
Cc1cccc(N(Cc2ccccc2)C(=O)c2ccc(C)c(S(=O)(=O)N3CCOCC3)c2)c1 35.5 µM [activator, partial curve, poor fit]
